Results from US20180291093A1 (Eli Lilly, published 2018).
Each block holds one binder with its values, some of them ahead of it.

What was measured:
human IL-23 [1] = target: T1, human IL-23 (human, UniProt Q9NPF7 20-189; P29460 23-328); assay: cell-based or functional assay
T1 sequence (looked up) 1: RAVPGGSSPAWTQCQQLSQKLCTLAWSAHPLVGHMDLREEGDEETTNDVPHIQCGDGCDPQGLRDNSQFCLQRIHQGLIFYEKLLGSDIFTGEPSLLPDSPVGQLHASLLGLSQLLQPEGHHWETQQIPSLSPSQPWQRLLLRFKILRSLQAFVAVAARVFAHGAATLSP
T1 sequence (looked up) 2: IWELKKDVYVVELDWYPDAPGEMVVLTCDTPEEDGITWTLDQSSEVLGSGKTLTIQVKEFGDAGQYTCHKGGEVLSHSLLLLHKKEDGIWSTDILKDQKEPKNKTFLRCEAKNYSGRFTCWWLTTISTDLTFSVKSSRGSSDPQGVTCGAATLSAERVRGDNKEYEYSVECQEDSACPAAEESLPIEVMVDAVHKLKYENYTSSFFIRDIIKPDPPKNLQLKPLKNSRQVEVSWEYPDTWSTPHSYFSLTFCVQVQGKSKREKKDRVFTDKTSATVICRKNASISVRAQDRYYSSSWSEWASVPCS

human IL-12 (Peprotech) = target: T2, human IL-12 (Peprotech) (human, UniProt P29459 23-219; P29460 23-328); assay: SPR (BIAcore 2000), bispecific captured on protein A, 25 C
T2 construct: Bought from Peprotech
T2 sequence (looked up) 1: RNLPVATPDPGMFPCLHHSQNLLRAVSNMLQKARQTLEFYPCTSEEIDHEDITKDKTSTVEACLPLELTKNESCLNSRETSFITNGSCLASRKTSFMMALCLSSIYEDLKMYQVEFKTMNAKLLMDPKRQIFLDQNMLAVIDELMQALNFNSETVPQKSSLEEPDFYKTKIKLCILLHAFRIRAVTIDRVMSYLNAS
T2 sequence (looked up) 2: T1 sequence (looked up) 2
Experimental: A BIAcore 2000 instrument is used to determine if the bispecific antibody of the invention will bind human IL-12. Unless noted, reagents and materials are purchased from GE Healthcare Life Sciences (Upsala, Sweden); measurements performed at 25° C., and HBS-P buffer (150 mM sodium chloride, 0.005% (w/v) surfactant P-20, and 10 mM HEPES, pH 7.4) is used as the running- and sample-buffer. Protein A (Calbiochem) is immobilized on flow cells 1, 2, 3 and 4 of a CM5 sensor chip using an amine coupling kit. Bispecific Antibody 1 (diluted to 2 μg/mL) is captured first on flow cell 2 (with a 5 second injection at 80 μL/min, yielding 460 response units (Δ RU) of Bispecific Antibody 1 capture). Flow cell 1 is a protein-A-only control. Next, human IL-12 (Peprotech) is injected (667 nM) for 2 minutes and no additional binding signal (0 Δ RU) is observed. A commercial antibody specific for IL-12 (anti-human IL-12 antibody sold under the trade name STELARA®) binds human IL-12.

human IL-23 [2] = target: T1, human IL-23; assay: SPR (Biacore 3000), bispecific captured on protein A, 37 C, 1:1 fit, n = 4
Experimental: (§1) A CM5 chip (Biacore P/N BR-1000-12) containing immobilized protein A (generated using standard NHS-EDC amine coupling) on all four flow cells (Fc) was used to employ a capture methodology. Bispecific antibody samples are prepared at approximately 2 μg/mL by dilution into running buffer. Human IL-23 is prepared at final concentrations of 25, 12.5, 6.25, 3.13, 0.78, 0.39, 0.20, 0.10 and 0 (blank) nM by dilution into running buffer. Human CGRP is prepared at final concentrations of 12.5, 6.25, 3.13, 0.78, 0.39, 0.20, 0.10 and 0 (blank) nM by dilution into running buffer.
(§2) Each analysis cycle consists of (1) capturing different bispecific antibody samples on separate flow cells (Fc2, Fc3, and Fc4) at a level to facilitate a 20-100RU maximum response signal from either the human IL-23 or CGRP; (2) injection of each human IL-23 or human CGRP concentration over all four Fc at 100 μL/min for 120 seconds followed by return to buffer flow for 600 seconds to monitor dissociation phase; (3) regeneration of chip surfaces with injection of 10 mM glycine, pH 1.5, for 30 seconds at 10 μL/min over all cells; and (5) equilibration of chip surfaces in HBS-EP+ running buffer. Data are processed using standard double-referencing and fit to a 1:1 binding model using BiaEvaluation software, version 4.1, to determine the association rate (kₒₙ, M⁻¹s⁻¹ units), dissociation rate (koff, s⁻¹ units), and Rₘₐₓ (RU units). The equilibrium dissociation constant (KD) is calculated from the relationship KD=koff/kₒₙ, and is in molar units.

human CGRP [3] = target: T3, human CGRP (human, UniProt P06881 83-119, not fully specified); assay: SPR (Biacore 3000), bispecific captured on protein A, 37 C, 1:1 fit, n = 2
T3 construct: also called Calcitonin Gene Related Peptide; Human CGRP peptide (Bachem H-1470)
T3 peptide (looked up): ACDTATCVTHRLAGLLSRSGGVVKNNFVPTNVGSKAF
Experimental: as §1, §2

human IL-23 [4] = target: T1, human IL-23; assay: SPR (Biacore 3000), bispecific captured on protein A, 37 C, 1:1 fit
Experimental: as §1, §2

human CGRP [5] = target: T3, human CGRP; assay: as above
Experimental: as §1, §2

- IC50 of IL-23-induced Stat 3 activity (luciferase) in Kit225 cells (human IL-23 [1]): 1670 pM
- binding result (human IL-12 (Peprotech)): no binding (tested: 667 nM)
- Kd (human IL-23 [2]): 210 pM
- koff (human IL-23 [2]): 0.00017 s⁻¹
- kon (human IL-23 [2]): 3.7e+06 M⁻¹ s⁻¹
- Kd (human CGRP [3]): 26 pM
- koff (human CGRP [3]): 0.00025 s⁻¹
- kon (human CGRP [3]): 3e+07 M⁻¹ s⁻¹
B1: Bispecific Antibody 1 (bispecific antibody, human IgG4 S228P, kappa, F234A L235A)
heavy: QVQLVQSGAEVKKPGSSVKVSCKASGYTFGNYWMQWVRQAPGQGLEWMGAIYEGTGKTVYIQKFADRVTITADKSTSTAYMELSSLRSEDTAVYYCARLSDYVSGFGYWGQGTTVTVSSASTKGPSVFPLAPCSRSTSESTAALGCLVKDYFPEPVTVSWNSGALTSGVHTFPAVLQSSGLYSLSSVVTVPSSSLGTKTYTCNVDHKPSNTKVDKRV[human IgG4 Fc with S228P F234A L235A (EU numbers) omitted here]GGGSGGGGSGGGGSQVQLVQSGAEVKKPGSSVKVSCKASGYPFTRYVMHWVRQAPGQCLEWMGYINPYNDGVNYNEKFKGRVTITADESTSTAYMELSSLRSEDTAVYYCARNWDTGLWGQGTTVTVSSGGGGSGGGGSGGGGSGGGGSDIQMTQSPSSLSASVGDRVTITCKASDHIGKFLTWYQQKPGKAPKLLIYGATSKLTGVPSRFSGSGSGTDFTLTISSLQPEDFATYYCQQYWSTPFTFGCGTKVEIK
light: DIQMTQSPSSLSASVGDRVTITCRASKDISKYLNWYQQKPGKAPKLLIYYTSGYHSGVPSRFSGSGSGTDFTLTISSLQPEDFATYYCQQGDALPPTFGGGTKVEIKRTVAAPSVFIFPPSDEQLKSGTASVVCLLNNFYPREAKVQWKVDNALQSGNSQESVTEQDSKDSTYSLSSTLTLSKADYEKHKVYACEVTHQGLSSPVTKSFNRGEC
modifications: glycosylated at asparagine residue 296 of SEQ ID NO: 1
notes: IgG-scFv format: anti-CGRP IgG4-PAA with an anti-IL-23p19 scFv at the C-terminus of each heavy chain; expressed in CHO; also called first exemplified bispecific antibody

- Kd (human IL-23 [4]): 220 pM
- koff (human IL-23 [4]): 0.00016 s⁻¹
- kon (human IL-23 [4]): 730000 M⁻¹ s⁻¹
- Kd (human CGRP [5]): 77 pM
- koff (human CGRP [5]): 0.00018 s⁻¹
- kon (human CGRP [5]): 2.3e+06 M⁻¹ s⁻¹
B2: Bispecific Antibody 2 (bispecific antibody, human IgG4 S228P, kappa, F234A L235A)
heavy: QVQLVQSGAEVKKPGSSVKVSCKASGYTFGNYWMQWVRQAPGQGLEWMGAIYEGTGKTVYIQKFADRVTITADKSTSTAYMELSSLRSEDTAVYYCARLSDYVSGFGYWGQGTTVTVSSASTKGPSVFPLAPCSRSTSESTAALGCLVKDYFPEPVTVSWNSGALTSGVHTFPAVLQSSGLYSLSSVVTVPSSSLGTKTYTCNVDHKPSNTKVDKRV[human IgG4 Fc with S228P F234A L235A (EU numbers) omitted here]GGGSGGGGSGGGGSQVQLVQSGAEVKKPGSSVKVSCKASGYPFTRYVMHWVRQAPGQCLEWMGYINPYNDGVNYNEKFKGRVTITADESTSTAYMELSSLRSEDTAVYYCARNWDTGLWGQGTTVTVSSGGGGSGGGGSGGGGSGGGGSDIQMTQSPSSLSASVGDRVTITCKASDHIGKFLTWYQQKPGKAPKLLIYGATSKLTGVPSRFSGSGSGTDFTLTISSLQPEDFATYYCQTYWSTPFTFGCGTKVEIK
light: B1 light
modifications: glycosylated at asparagine residue 296 of SEQ ID NO: 2
notes: As Bispecific Antibody 1 but with Q684T in LCDR6 of the scFv; transiently expressed in CHO; also called second exemplified bispecific antibody
